Results published in the BET-seq Pho4 binding data (Le et al. 2018).
This is one part of the list. Values were computed here from the reads of four pooled replicates and scatter widely.

Target: T1, Pho4 (S. cerevisiae) (UniProt P07270)
T1 sequence: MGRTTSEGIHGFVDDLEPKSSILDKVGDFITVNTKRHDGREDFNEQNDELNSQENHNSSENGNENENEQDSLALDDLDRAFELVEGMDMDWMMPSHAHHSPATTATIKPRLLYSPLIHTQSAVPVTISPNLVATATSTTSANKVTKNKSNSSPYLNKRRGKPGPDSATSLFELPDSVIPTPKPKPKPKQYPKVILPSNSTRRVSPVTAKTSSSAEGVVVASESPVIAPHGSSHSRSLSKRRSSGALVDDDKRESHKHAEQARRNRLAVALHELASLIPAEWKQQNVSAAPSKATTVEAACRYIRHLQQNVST
Test: relative binding free energy (BET-seq); higher = weaker binding
Details: reference: library average

Relative binding free energy, 0.48 kcal/mol:
ATCTACACGTGAATGT

Relative binding free energy, 0.26 kcal/mol:
AACATCACGTGTGGGG
ACTTTCACGTGTTGTC
GGGATCACGTGAGTAT
ATTTTCACGTGTACGG

Relative binding free energy, -0.05 kcal/mol:
TAGCGCACGTGATTGT
AGTGGCACGTGGACCG
AGCTGCACGTGTTAGT
GAGGTCACGTGGGTCG
CTGAGCACGTGTTATG

Relative binding free energy, -0.22 kcal/mol:
TGGCCCACGTGGGGAT
ATAGGCACGTGTTGTG
TCTTCCACGTGGGGTT

Relative binding free energy, -0.26 kcal/mol:
AATGGCACGTGCTGGA
TTAGCCACGTGGGGCG

Relative binding free energy, 0.54 kcal/mol:
GAACTCACGTGATGTT

Relative binding free energy, -0.13 kcal/mol:
TGGGACACGTGGGTTG
CCTGGCACGTGGTGGA
AGGTGCACGTGTTGCT
ATTAGCACGTGTATTT

Relative binding free energy, 0.13 kcal/mol:
GTATTCACGTGGTAGG
TATAACACGTGTTGGC
GGGGTCACGTGGGATT
TGTAGCACGTGAGTTG

Relative binding free energy, 0.14 kcal/mol:
CGGGTCACGTGTGTTG
GCGTGCACGTGTAGAG
GGTAACACGTGTTTTT
CGTGGCACGTGAAAGG
TCTTACACGTGTATGT
GGCTGCACGTGTGACG
GGGTACACGTGGACTG
CGGCTCACGTGTTGTT
CGGGTCACGTGTTAGG

Relative binding free energy, 0.09 kcal/mol:
TGTAACACGTGAGTGT
TTCTGCACGTGTAAGT
GATTGCACGTGGCCGG

Relative binding free energy, -0.12 kcal/mol:
TCATGCACGTGCGTGG
GTGGGCACGTGGGTCT
TATACCACGTGTGGTT
AAGCGCACGTGGTTTG

Relative binding free energy, 0.2 kcal/mol:
GGTATCACGTGGCGAG
GGCATCACGTGGTTTG
GTTGGCACGTGAGAGT
TAGCTCACGTGTTGGA

Relative binding free energy, -0.16 kcal/mol:
GGGAGCACGTGGGTGC
GTGGCCACGTGGTGTT
ATCTGCACGTGGGTCT
AGTGCCACGTGCAGGT
GTTGGCACGTGGCTGT

Relative binding free energy, 0.12 kcal/mol:
GTCTACACGTGTAGTT
GTGTCCACGTGAAGGT
TTAAACACGTGAGGAT
AATCGCACGTGTAAGT
TCGGTCACGTGTGGAA
TTGGACACGTGTGGAT
TGAGTCACGTGTATCT
AAGTGCACGTGAGAGG
GGCTACACGTGTGGGG
GGTTACACGTGGTAAG
GTCATCACGTGGGAGG

Relative binding free energy, -0.11 kcal/mol:
TTGGGCACGTGGTTCC
AATGGCACGTGTGGGA

Relative binding free energy, 0.36 kcal/mol:
GGGCTCACGTGAGGGG

Relative binding free energy, 0.03 kcal/mol:
TTGGACACGTGGCTCG
TGCGTCACGTGGACGT
GGGGCCACGTGTCGTG

Relative binding free energy, -0.18 kcal/mol:
TTGGGCACGTGCTCGT

Relative binding free energy, -0.34 kcal/mol:
TGATGCACGTGGGTCA

Relative binding free energy, -0.02 kcal/mol:
GGTGGCACGTGGACTA
TAGGACACGTGTTTTT

Relative binding free energy, 0.35 kcal/mol:
ATCTTCACGTGAGGTA

Relative binding free energy, 0.04 kcal/mol:
AAGATCACGTGGGCTG
TTGGACACGTGTGTGA
TGTGACACGTGTTAGA
ATTAGCACGTGATGGG

Relative binding free energy, 0.25 kcal/mol:
CTTAACACGTGAAGTG
TGATTCACGTGTCGGT

Relative binding free energy, 0.08 kcal/mol:
CTGTGCACGTGACTGG
AAAGTCACGTGGTGCA
GAATGCACGTGGAGGC
TCGTTCACGTGGTATA
AAGGTCACGTGGTGCG
TGGATCACGTGGGTTT
TGGATCACGTGGGACA

Relative binding free energy, -0.25 kcal/mol:
ATCAGCACGTGGGTTT
TTAGGCACGTGGTCAA

Relative binding free energy, 0.27 kcal/mol:
TGGCACACGTGATGAG

Relative binding free energy, 0.31 kcal/mol:
TCGTTCACGTGATTGA
TAGATCACGTGATCGT

Relative binding free energy, 0.43 kcal/mol:
GAGTTCACGTGTTATG

Relative binding free energy, 0.11 kcal/mol:
AGATGCACGTGAGGTA
CTATACACGTGTGAGG

Relative binding free energy, 0.38 kcal/mol:
TCGTTCACGTGTGATG
TATTTCACGTGATGAT

Relative binding free energy, 0.39 kcal/mol:
GGTTTCACGTGAGAAA

Relative binding free energy, -0.09 kcal/mol:
GAAAGCACGTGGGGGA
ATTGACACGTGGGTTA
TGGCGCACGTGCAGAG
TATGGCACGTGCGCTT
AGAGCCACGTGGGAGT
AATGGCACGTGGCAAT
TACAGCACGTGGTATG

Relative binding free energy, 0.33 kcal/mol:
TATTTCACGTGTGGGT

Relative binding free energy, -0.06 kcal/mol:
CTTAACACGTGTTTTA
CGAAGCACGTGTGTTG
TGTAACACGTGTGGAA
TAACTCACGTGGGGTT
ATCGGCACGTGGATTG
GGCGGCACGTGGGATT

Relative binding free energy, 0.65 kcal/mol:
GGGTTCACGTGAAAGA

Relative binding free energy, 0.16 kcal/mol:
GGTATCACGTGTGTCA
TATGGCACGTGAGTGT
TGAGTCACGTGTTTAG
GGTAACACGTGTGGAG
AATTTCACGTGGGAGA

Relative binding free energy, 0.21 kcal/mol:
TGACTCACGTGGATGG
TTGTACACGTGTGGGT
TAAAGCACGTGAGGCG
ATTAGCACGTGAGAGT

Relative binding free energy, 0.07 kcal/mol:
GAATCCACGTGGGGGG
TGGTCCACGTGTGGGA
TTTGTCACGTGTCGTG
TCGGTCACGTGTTTCG

Relative binding free energy, -0.15 kcal/mol:
AAGGGCACGTGGTGGA

Relative binding free energy, 0.1 kcal/mol:
ATGTACACGTGTTTGT
GATTCCACGTGGTGTA
GCGTGCACGTGTGCGG
AGTTCCACGTGTGATG
CTGGGCACGTGAGGTC
TCGGACACGTGTTGGA
TGCTACACGTGTGGCG

Relative binding free energy, 0.34 kcal/mol:
TGGCTCACGTGAGATG
TGCTTCACGTGATGTG

Relative binding free energy, 0.06 kcal/mol:
CAGATCACGTGGGTGA
GTGACCACGTGTTTGG

Relative binding free energy, -0.03 kcal/mol:
GTGTGCACGTGGTGCA
TATTCCACGTGGGAGT
CGGGTCACGTGGGACT
TTGTGCACGTGGCTGC
GCGGGCACGTGTTGGC
CAAAGCACGTGGTAGT
CATAGCACGTGTGTAG
GAGGGCACGTGTTTAA

Relative binding free energy, 0 kcal/mol:
AGGTGCACGTGTGGAG
TTGGCCACGTGGATGG
ATTGGCACGTGATTGC
GAATGCACGTGTAGGG
TTGCGCACGTGTCTGT
TACGTCACGTGGAGGG
CTGAGCACGTGTATTT

Relative binding free energy, -0.01 kcal/mol:
TTACGCACGTGTAGTT
TGGGACACGTGATCTG
CGGAGCACGTGTGTTT

Relative binding free energy, 0.02 kcal/mol:
TTTTACACGTGGTCAA
TATGACACGTGGTAAT
ACTGTCACGTGGGTCG
ATCATCACGTGGAGGG

Relative binding free energy, -0.07 kcal/mol:
TAAGACACGTGGGGGA

Relative binding free energy, 0.29 kcal/mol:
TGCTTCACGTGTGCAT
GGGATCACGTGAATTG
AGATTCACGTGTGCGA
TTGTGCACGTGAGTTA

Relative binding free energy, 0.15 kcal/mol:
GCTGGCACGTGATTTG
CGTATCACGTGTGCGT
TGGTGCACGTGAGTGA
AGTTACACGTGTATGA
TGTTACACGTGAGCTT
AGGTTCACGTGCAGTA
TAGGACACGTGTTGAG

Relative binding free energy, -0.21 kcal/mol:
GCCGGCACGTGGGGTG
CAGAGCACGTGGAGGG
TCGGGCACGTGGGGAC

Relative binding free energy, -0.14 kcal/mol:
TAAGGCACGTGTAATG

Relative binding free energy, 0.37 kcal/mol:
GGTTTCACGTGGAGAC
GCAGTCACGTGAGGGT
TTGTTCACGTGTGTCT

Relative binding free energy, 0.18 kcal/mol:
TTCTTCACGTGGGGGA
GTGAACACGTGTTGAA
GGCATCACGTGGCGGA
TATATCACGTGGAATG
CGGGTCACGTGTTGGC

Relative binding free energy, 0.19 kcal/mol:
TTTAACACGTGATGGC
GTTTTCACGTGGCATG
GAATGCACGTGTGTTG
TGTCTCACGTGTGGTT

Relative binding free energy, -0.08 kcal/mol:
TTCCGCACGTGTTGTG
GGCGGCACGTGCAGGT
GTGGGCACGTGGAAGG
TTAAGCACGTGTTGGT
GGTACCACGTGGAGGT

Relative binding free energy, -0.04 kcal/mol:
TGTTACACGTGGGGGA
TGGTGCACGTGGTTCA
TGTCCCACGTGGAGGG
TGTTGCACGTGGGGAC
TTCGTCACGTGGTTTA

Relative binding free energy, 0.23 kcal/mol:
TTGGCCACGTGATAGT

Relative binding free energy, -0.19 kcal/mol:
CATGCCACGTGGGGTA
AGAGCCACGTGGGCGT
AGTTGCACGTGTTCTG
ATTGACACGTGGGTTC

Relative binding free energy, 0.32 kcal/mol:
GGGTTCACGTGGGATA

Relative binding free energy, 0.24 kcal/mol:
GGAGTCACGTGTAAGT
TGATTCACGTGTGTAT
TTTCTCACGTGCTGTT
GCGCACACGTGTGGGG
GCGATCACGTGTAGTG

Relative binding free energy, 0.01 kcal/mol:
GTTCGCACGTGGGGAG

Relative binding free energy, 0.22 kcal/mol:
GGACTCACGTGTGGGC
TGCTACACGTGTGATG
TTGTACACGTGGAAAT
GGGGTCACGTGGTTTA
TTACTCACGTGTGGTG

Relative binding free energy, 0.05 kcal/mol:
ATACGCACGTGAGTGG
GTGGGCACGTGTAGAC
AAGGTCACGTGGCGGA
TAATACACGTGTTGCG
TATTACACGTGCTATT
TGCGTCACGTGTACGT
AATGTCACGTGGTTCT

Relative binding free energy, -0.1 kcal/mol:
ATGAGCACGTGTCTGG
TTTACCACGTGGCGGG
TTGTGCACGTGTTCTT

Relative binding free energy, 0.17 kcal/mol:
ATGTTCACGTGGCTTT
GATGTCACGTGCTGGG

Relative binding free energy, -0.2 kcal/mol:
ATGCGCACGTGGTGCT
AGTAGCACGTGGGTAA
ATTGGCACGTGGCGGG
GGGGGCACGTGCGACG

Relative binding free energy, 0.28 kcal/mol:
GCAGTCACGTGTTGAG

Relative binding free energy, -0.35 kcal/mol:
CTACGCACGTGGTGGG
